Hit rate of the full screen: of about 52,000 compounds, about 4,300 (8.3%) were called active. Cut-off read from the data, not from the text of the source: active = survival mostly below about 52% (no sharp cut-off); inactive = mostly above about 56%. The list shows a part of the results.

This experiment has as its system DeltatarO mutant. Kind of experiment: S. aureus survival, RN4220 and DeltatarO strains – OD600, teichoic acid synthesis inhibitors, primary screen (AID 463173). The following applies: S. aureus RN4220 wild type/DeltatarO growth, OD600, 18 h, stronger effect = lower value, screened at 18.75 µg/mL (by protocol).
Take `O=c1oc2c(CN3CCN(CCO)CC3)c(O)ccc2cc1-c1ccccc1`: the survival is inactive: 67%.

Take `COc1ccc(Cn2ccc3nc(C)c(C(=O)NCc4ccc(F)cc4)cc3c2=O)cc1`: the survival is inactive: 103%. With `CCOC(=O)c1c(C)[nH]c(C)c1S(=O)(=O)N1CCCC(C(=O)N2CCN(c3ccccc3)CC2)C1` (stereo unspecified), the survival is inactive: 86%. For `CCOCCc1nn2c(=O)cc(COC(=O)C3CCCCC3)nc2s1`, the survival was inactive: 88%.

As to `Cc1cccn2c(=O)c3cc(C(=O)NC(C)c4ccccc4)c(=N)n(CCCO)c3nc12` (stereo unspecified), the survival is inactive: 92%. As for `Cc1ccc2c(=O)cc(C(=O)Nc3cccc(C(F)(F)F)c3)oc2c1C`, the figure is inactive: 73%. With `Cc1ccc(NC(=O)CSc2nnc3scc(-c4ccccc4)n23)cc1`, the survival is active: 15%. Regarding `O=C(O)c1nnc(Cl)c2ccccc12`, the survival is inactive: 91%.

In the case of `COC(=O)c1ccc(OCC2c3cc(OC)c(OC)cc3CCN2C(=O)c2ccc(F)cc2)cc1` (stereo unspecified), the survival is inactive: 76%.

For `O=C(Cn1nnc(-c2ccccc2Cl)n1)Nc1ccc(Br)cc1`, the survival is inactive: 62%. In the case of `COCCCNc1oc(-c2ccc(COc3ccc(Cl)cc3)o2)nc1C#N`, the survival was inactive: 51%.

`Cc1nc2cc(N3CCN(C)CC3)c(NC(=O)C3CC3)cc2c(=O)n1Cc1ccccc1`: the survival was inactive: 79%.

With `COc1ccc(CNC(=O)C2CCN(c3nc4ccccc4[nH]3)CC2)cc1OC`, the survival was inactive: 55%. As for `O=C(Nc1sc2c(c1C(=O)NCC1CCCO1)CCC2)c1cc(=O)c2ccccc2o1` (stereo unspecified), the figure is inactive: 66%; as for `CCCCCNC(=O)CCCCCn1c(=O)[nH]c2ccsc2c1=O`, inactive: 81%. Next, `CCOc1ccc(C2CC(=O)Nc3c2c(=O)nc(SCc2ccccc2C)n3C)cc1OC` (stereo unspecified): active: 42%. For `CCn1cc(C(=O)OCC(=O)Nc2cccc(C(C)=O)c2)c(=O)c2ccc(C)nc21`, the survival was inactive: 84%. Consider `CCOC(=O)c1c(S(=O)(=O)N2CCCC(C(=O)Nc3cccc(C)n3)C2)c(C)n(C)c1C` (stereo unspecified), for which the survival is inactive: 87%. As for `COc1ccc(Cn2c(=O)c3oc4ccccc4c3n(Cc3ccc(Cl)cc3)c2=O)cc1`, the survival is inactive: 107%.

Turning to `CCN(CC)CCCNC(=O)c1nn(C)c2c1CS(=O)(=O)c1ccccc1-2`, the survival was inactive: 61%. `Cc1ccccc1Cn1c(CN2CCC(C(=O)NCCc3ccccc3)CC2)cc2ccccc21`: the survival was inactive: 94%. On to `CCC(=O)Nc1cccc(C(=O)OCc2cc(=O)n3nc(CC)sc3n2)c1`, for which the survival was inactive: 96%. As for `COc1ccc2c(c1)c1c(c(=O)n(CCc3ccccc3)c(=O)n1Cc1ccc(F)cc1)n2C`, the figure is active: 6%; as for `CCN(CC)c1nc2ccccc2nc1C(=O)Nc1cccc(C(C)=O)c1`, inactive: 73%; as for `COc1ccc(NC(=O)c2c(-c3ccc(C)cc3)nnc3ccccc23)c(OC)c1`, inactive: 81%. As for `COc1ccc2c(c1)c1c(c(=O)n(-c3ccc(F)c(Cl)c3)c(=O)n1Cc1ccccc1C)n2C`, the figure is inactive: 83%; as for `CCn1c(O)c(/C=C/c2nc3ccccc3n2CC)sc1=S`, inactive: 78%; as for `CCSC1=NC2(CCN(C(=O)NC3CCCCC3)CC2)N=C1c1ccc(Cl)cc1`, inactive: 69%. As for `CCOc1ccc(CN2CCc3nc(Nc4ccc(OC)cc4OC)ncc3C2)cc1`, the figure is inactive: 99%; as for `O=C(NCCCN1CCN(c2ccc(F)cc2)CC1)c1ccc2nc(Cc3ccccc3)oc2c1`, inactive: 115%. On to `Cc1cc(C)nc(NC(C)(C)C(=O)O)n1`, for which the survival is inactive: 67%. As for `CCc1nn(Cc2ccc(Cl)cc2)c(=O)c2cc3cc(C)ccc3n12`, the figure is inactive: 94%; as for `Cc1ccc(NC(=O)c2sc3nc4c(cc3c2N)CN(Cc2ccccc2)CC4)cc1`, inactive: 110%; as for `O=c1[nH]cnc2c1[nH]c1ccccc12`, inactive: 102%. Turning to `CCN1C(=O)c2ccccc2Sc2ccc(NC(=O)c3ccc(Cl)cc3)cc21`, the survival is inactive: 97%.

Consider `Cc1oc2ncn(C)c(=O)c2c1C(=O)N1CCN(c2ccccc2F)CC1`, for which the survival was inactive: 87%.

As for `Nc1ccc(N2CCCC2)cc1`, the survival is inactive: 86%. Next, `CCc1ccccc1NC(=O)c1cnc2sc(N3CCCC3)nn2c1=O`: inactive: 104%; `O=C(Nc1ccc(-c2cn3cccnc3n2)cc1)c1cc(Br)ccc1Cl`: inactive: 105%.

With `Cc1nnc(N2CCCC(C(=O)NCCc3ccc(Cl)cc3)C2)c2nn(-c3ccccc3)c(C)c12` (stereo unspecified), the survival is inactive: 83%. As for `CC(=O)N1CC=C2C(C#N)=C(N)C(C#N)(C#N)C(Cc3ccccc3)C2C1` (stereo unspecified), the figure is inactive: 90%; as for `O=C(Nc1cccc(Cl)c1)c1cc2c(=O)[nH]c3ccccc3c2s1`, inactive: 47%; as for `Cc1cccc(N2CCN(C(=O)CCn3c(=O)c4cccn4c4cccnc43)CC2C)c1` (stereo unspecified), inactive: 63%.

Turning to `COc1cccc(C(=O)Nc2cccc(-c3cn4c(C)csc4n3)c2)c1OC`, the survival is inactive: 108%.

For `Cc1cccc(-c2nc3c4ccccc4nc(N4CCN(c5cc(C)ccc5C)CC4)n3n2)c1`, the survival is inactive: 121%. Regarding `Cc1cn2c(=O)cc(COC(=O)COc3ccccc3C)nc2s1`, the survival is inactive: 76%. As for `CCOC(=O)c1cnc2c(C)c(C)ccc2c1NCCCCCO`, the figure is inactive: 84%; as for `CCOC(=O)c1c(C)[nH]c(CCC(=O)NCc2ccc(N(C)C)cc2)c1C`, inactive: 83%; as for `O=c1cc(-c2ccccc2)n2c(SCc3ccc(F)cc3)nnc2[nH]1`, inactive: 73%. Next, `O=c1oc2ccccc2cc1-c1cn2cc(Cc3ccc(Cl)cc3)sc2n1`: inactive: 84%. As for `CCN(Cc1ccccc1)C(=O)Cn1c(=O)n(-c2ccc(C)c(C)c2)c(=O)c2c(C)c(C)sc21`, the figure is inactive: 84%. Turning to `COc1ccc(CNc2oc(-c3ccc(COc4ccccc4C)o3)nc2C#N)cc1`, the survival was inactive: 50%. As for `O=C(Nc1cccc(C(F)(F)F)c1)c1cc2ccc3cccnc3c2[nH]1`, the figure is inactive: 72%; as for `Cc1ccc(-c2nc(C)c(CCNS(=O)(=O)c3ccc(F)c(C(F)(F)F)c3)s2)cc1`, active: -4%; as for `CCn1cc(C(=O)N2CCN(c3ccccc3F)CC2)c(=O)c2cc(S(=O)(=O)N(C)C)ccc21`, inactive: 122%.

As to `COc1cccc(N2CCN(C(=O)Cn3c(-c4cccs4)cc4ccccc43)CC2)c1`, the survival was inactive: 104%. As for `CC1=C(C(=O)Nc2ccc(C)cc2C)C(c2cccs2)n2nc(SCc3ccccc3Cl)nc2N1` (stereo unspecified), the figure is inactive: 61%. Next, `COc1ccc(CN2C(=O)c3ccccc3C2C(=O)NCCc2ccccc2)c(OC)c1` (stereo unspecified): inactive: 86%; `Cc1cc2oc(C(=O)Nc3ccc(S(=O)(=O)N4CCCCCC4)cc3)cc(=O)c2cc1C`: active: 42%; `CCN(CC)c1ccc(NS(=O)(=O)c2cc3[nH]c(=O)c(=O)[nH]c3cc2C)c(C)c1`: inactive: 74%. Next, `CCN(CC)c1ccc(NC(=O)CSc2nc(-c3cccs3)cc(C(F)(F)F)n2)cc1`: inactive: 128%; `Cc1ccc(NC(=O)Nc2nnc(N(C)Cc3ccccc3)s2)c(C)c1`: inactive: 81%. Take `CC(C)c1ccc(OC(=O)c2cc(-c3ccccc3)on2)cc1`: the survival is inactive: 109%. As to `CCOc1ccc(-n2nc3ccc(NC(=O)COc4ccc(OC)cc4)cc3n2)cc1`, the survival is inactive: 74%. Regarding `COC(=O)c1ccc(C2C(C(=O)Nc3ccccc3)=C(C)Nc3nc4ccccc4n32)cc1` (stereo unspecified), the survival was inactive: 70%. In the case of `CC(=O)N1CCc2c(sc3nc(SCC(C)C)n(-c4ccc(F)c(Cl)c4)c(=O)c23)C1`, the survival is inactive: 63%. As for `O=C(NCCN1CCCC1)c1ccc2c(c1)OCCO2`, the figure is inactive: 99%. Next, `CCCSc1ncc(Cl)c(C(=O)Nc2c(C(=O)Nc3ccc(C)cc3)oc3ccccc23)n1`: inactive: 62%. Turning to `COc1cc(C)cc2oc(=O)c(CC(=O)NCc3cccc(Cl)c3)c(C)c12`, the survival was inactive: 58%. Next, `CCc1nc(Oc2cccc(F)c2)c2oc3ccccc3c2n1`: inactive: 92%. As for `Cc1ccc(NC(=O)CN2C(=O)CCSc3ccc(S(=O)(=O)N4CCCC4)cc32)cc1C`, the figure is inactive: 99%; as for `CC1=C(c2ccc(C)cc2)S(=O)(=O)NC1=NCCCN1CCN(c2ccc(F)cc2)CC1`, inactive: 69%; as for `Cc1ccc(C)c(OC(=O)CSc2nnc(CNC(=O)c3ccccc3)o2)c1`, inactive: 105%.

For the compound `O=C(N/N=C/c1c(O)ccc2ccccc12)C1CC12CCC2` (stereo unspecified), the survival is inactive: 83%. Consider `CC(C)(C)c1ccc(C(=O)NC2CCNCC2)cc1`, for which the survival was inactive: 102%.

Take `Cc1cc(NC(=O)C2CCN(S(=O)(=O)c3ccc(Br)s3)CC2)ccc1Br`: the survival was inactive: 79%. As for `Cc1ccc(NC(=O)C2C3C=CC4(O3)C2C(=O)N(c2ccccc2F)C4C(=O)NC2CCCC2)cc1` (stereo unspecified), the figure is inactive: 68%. As to `Cc1ccc(Cl)cc1N1CCN(Cc2nnc(-c3ccc4c(c3)OCO4)o2)CC1`, the survival is inactive: 80%. As for `Cc1ccc(CNC(=O)CSc2n[nH]c(-c3ccc(F)cc3)n2)cc1`, the figure is inactive: 122%; as for `O=C(N/N=C/c1ccccc1)c1[nH]ncc1I`, inactive: 104%. Take `CC1=C(C(=O)Nc2ccccc2)C(c2cccn2C)n2ncnc2N1` (stereo unspecified): the survival is inactive: 95%. As to `Cc1ccc(C)c(Cn2c(C3CC(=O)N(c4ccccc4C)C3)nc3ccccc32)c1` (stereo unspecified), the survival was inactive: 80%. `Cc1ccc(Nc2nc(C)nc(N)c2S(=O)(=O)c2ccccc2)cc1`: the survival is inactive: 94%. As to `COc1ccc(Cn2c(=O)c3oc4ccccc4c3n(CC(=O)Nc3ccc(F)cc3F)c2=O)cc1`, the survival is inactive: 75%. Next, `O=C(NCCc1ccccc1Cl)c1ccc2c(c1)nc1n2CCCCC1`: inactive: 80%; `COc1cccc(CCNC(=O)c2c(O)nc3ccccn3c2=O)c1`: active: 48%. Next, `CC(C)c1cccc(OCCn2c(-c3ccc(Cl)cc3)nc3ccccc3c2=O)c1`: inactive: 78%. For the compound `c1coc(C2NCCS2)c1` (stereo unspecified), the survival is inactive: 93%.

Turning to `CCOc1ccccc1NC(=O)c1cnn2c(C(F)F)cc(-c3ccccc3)nc12`, the survival is active: 58%. Consider `COCCCNC(=O)C1CCN(c2nn3cc(-c4ccc(F)cc4)nc3s2)CC1`, for which the survival is inactive: 76%.

Consider `CCC(C)NC(=O)c1nn(-c2ccc(C)cc2)c(=O)n(C)c1=O` (stereo unspecified), for which the survival was inactive: 73%.

The record behind these values is PubChem BioAssay AID463173 (ICCB-Longwood Screening Facility, Harvard Medical School, 2010).
